# Assay results as given in article PMC11251039, “Harnessing cholesterol uptake of malaria parasites for therapeutic applications” (EMBO Molecular Medicine, 2024).
# “And” between values parts separate entries of the source, which are not always exact repeats. Equal values may be shown once. Further values from the same series stand in other lists.
# Assays:
# P. berghei liver stages = assay: Plasmodium berghei liver stage growth inhibition assay (luminescence, in Huh7 cells); conditions: listed as BC5B
# [1] = test system: P. falciparum stage V gametocytes; assay: P. falciparum gametocyte viability assay (MitoTracker, flow cytometry), stage V; assay type: cell-based, Plasmodium falciparum; conditions: 48 h, replicate values, source data Fig. 2D, listed as BC5B
# Experimental: (§1) Gametocyte assays commenced seven days (stage III–IV) or ten days (stage V) post-invasion. […]
# (§2) Plasmodium falciparum Gametocyte Viability Assays:
# (§3) Asexual P. falciparum parasites were induced to form gametocytes as described (21).
# (§4) Synchronized trophozoite-stage parasites at 2% parasitaemia were incubated overnight and […]
# (§5) haematocrit maintained at 4%. On the subsequent day (designated as day 0) of gametocytogenesis, the culture containing early ring-stage parasites was first purified by sorbitol synchronisation to remove asynchronous trophozoites, and passed through a magnetic field in a sterile MACS® column in a SuperMACSTM II magnet to remove remaining late-stage parasites or later-stage gametocytes (negative selection). The culture medium was supplemented with 50 mM N-acetyl-D-glucosamine to inhibit asexual parasite proliferation, and changed daily. Sorbitol treatment was performed on Day 1, 5, and 6 to further remove asexual parasites. Gametocytes were magnetically enriched (positive selection) in a sterile column with a SuperMACSTM II magnet and eluted in culture media with 50 mM N-acetyl-D-glucosamine. These gametocytes were incubated overnight at 37 °C under microaerophilic conditions, and purity was assessed by examination under a light microscope (400× […]
# Gametocyte viability was assessed as described by Ridgway et al. (21) with modifications.
# Compounds or solvent controls (DMSO) were serially diluted across 96-well plates in culture media supplemented with 50 mM N-acetyl-D-glucosamine. Culture media without compound was used as a negative control. […]
# control to determine background gametocyte fluorescence. Stage III-IV gametocytes (Day 7) or stage V (day 10) gametocytes were concentrated and added to the plate with 200 µL per well. The plate was incubated for 48 hours at 37 °C under humid microaerophilic conditions.
# Parasites were then stained with 500 nM MitoTrackerTM Deep Red FM and 5 μg/ml Hoechst […]
# cytometer as described above. […]
# excluded. Live (positive) and dead (negative) gametocytes were differentiated by […]
# (§6) percentage of each was calculated. […]
# [2] = test system: P. falciparum stage III–IV gametocytes; assay: P. falciparum gametocyte viability assay (MitoTracker, flow cytometry), stage III-IV; assay type: cell-based, Plasmodium falciparum; conditions: 12.500000000 uM, 48 h, replicate values, source data Fig. 2C; listed as BC5B, 12.5 µM
# Experimental: as §1, §2, §3, §4
# as §5, with “Gametocytes were magnetically enriched (positive selection) in a sterile column with a SuperMACSTM II magnet and eluted in culture media with 50 mM N-acetyl-D-glucosamine.” left out
# Gametocyte viability was assessed as described by Ridgway et al. (21) with modifications. […]
# control to determine background gametocyte fluorescence. […]
# as §6
smiles,measurement,setting,value
COc1cc(NC(C)CCCNC(=O)CCC(=O)O[C@H]2CC[C@H]3[C@@H]4CC=C5C[C@@H](O)CC[C@]5(C)[C@H]4CC[C@]23C)c2ncccc2c1 (stereo partly drawn) [C-17-PQ],Figure 3E dose-response value (replicates),P. berghei liver stages; 0.072656250 uM,87.85 and 88.9 and 115.1 and 101.8 and 99.93 and 103.1 and 85.09 and 86.8 and 88.91 and 100 and 95.2 and 92.74
same,Figure 3E dose-response value (replicates),P. berghei liver stages; 0.145312500 uM,94.9 and 97.22 and 98.41 and 89.88 and 90.02 and 96.03 and 88.44
same,"Gametocyte stage V viability, percentage of control","[1]; 0.390625000 uM, 0.390625 µM",98.27% and 93.99% and 80.3% and 101.9% and 99.43% and 75.59% and 105.6% and 96.63% and 91.76%
same,"Gametocyte stage V viability, percentage of control","[1]; 0.781250000 uM, 0.78125 µM",91.23% and 94.41% and 81.44% and 109.3% and 90.89% and 82.01% and 94.72% and 89.86% and 84.65%
same,"Gametocyte stage V viability, percentage of control","[1]; 1.562500000 uM, 1.5625 µM",83.44% and 83.53% and 77.68% and 109.8% and 96.7% and 93.65% and 98.11% and 79.64% and 74.46%
same,"Gametocyte stage V viability, percentage of control","[1]; 3.125000000 uM, 3.125 µM",70.55% and 69.66% and 83.13% and 72.76% and 63.94% and 76.79% and 69.03% and 63.78%
same,"Gametocyte stage V viability, percentage of control","[1]; 6.250000000 uM, 6.25 µM",59.48% and 61.66% and 60.13% and 51.35% and 42.29% and 31.97% and 59.44% and 48.67% and 56.99%
same,"Gametocyte stage V viability, percentage of control","[1]; 12.500000000 uM, 12.5 µM",43.62% and 44.16% and 37.04% and 31.28% and 21.36% and 19.08% and 52.74% and 38.49% and 35.02%
same,"Gametocyte stage V viability, percentage of control",[1]; 25.000000000 uM,25.68% and 21.08% and 15.55% and 13.61% and 9.438% and 7.979% and 4.671% and 11.58% and 10.42%
same,"Gametocyte stage V viability, percentage of control",[1]; 50.000000000 uM,6.341% and 4.951% and 3.159% and 2.23% and 1.652% and 0.8009% and 0.8089% and 3.502% and 2.333%
same,"Gametocyte stage V viability, percentage of control",[1]; 100.000000000 uM,0.1792% and 0.9186% and -1.098% and 0.223% and 0.1622% and -0.3852% and 0.8573% and 1.212% and 1.051%
same,"Gametocyte stage III-IV viability, percentage of control",[2],40.42% and 42.4%
